{"source": "PubChem BioAssay AID1461", "about": "(National Center for Advancing Translational Sciences (NCATS), 2008)", "note": "Hit rate of the full screen: of about 220,000 compounds, about 2,300 (1%) were called active. Inconclusive means that the source gave no clear call. Such entries were picked first, then a sample of the others. Calls come from the whole dose curve; as a rule, active = well fitted inhibition curve with a large enough effect; inconclusive = small, poorly fitted or top-dose-only effect, or effect the other way; inactive = no such curve, though single readings can be large or run the other way. No potency is given beside an inconclusive call; the fits are too rough. % is set by controls: 0 for no effect and ±100 for the full control effect; potency is the fitted concentration of half-maximal effect; tags give direction and shape of the fitted curve.", "data": [{"target": "Neuropeptide S receptor (Homo sapiens) (UniProt Q6W5P4)", "sequence (Q6W5P4 whole entry, looked up)": "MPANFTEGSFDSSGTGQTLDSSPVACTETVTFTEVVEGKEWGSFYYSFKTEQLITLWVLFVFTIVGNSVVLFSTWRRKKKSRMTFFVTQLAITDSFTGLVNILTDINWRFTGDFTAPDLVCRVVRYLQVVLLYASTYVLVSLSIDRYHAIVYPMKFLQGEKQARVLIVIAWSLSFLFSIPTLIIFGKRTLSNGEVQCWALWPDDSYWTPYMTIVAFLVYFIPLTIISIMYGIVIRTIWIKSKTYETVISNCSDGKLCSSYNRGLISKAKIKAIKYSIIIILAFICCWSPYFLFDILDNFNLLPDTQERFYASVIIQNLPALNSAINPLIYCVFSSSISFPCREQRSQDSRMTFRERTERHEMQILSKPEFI", "assay": "qHTS Assay for Antagonists of the Neuropeptide S Receptor: cAMP Signal Transduction; note: nearly all actives have a fitted effect of over 50% in size", "conditions": "CHO-NPSR cells, cAMP TR-FRET, antagonist mode; activity change, negative = inhibition: at 38.3 µM (top of the series) unless noted", "values": [{"smiles": "CC(C)(C)c1csc(NC(=O)c2ccc(Cl)s2)n1", "Potency": "inconclusive [inhibitor, full curve, poor fit]"}, {"smiles": "C/C(=N\\NS(=O)(=O)c1ccccc1)c1ccc2c(c1)OCO2", "activity change, negative = inhibition": "inactive: 13.7%"}, {"smiles": "CCc1cccc(C)c1NC(=O)CSc1nnc(-c2cc3cc(Br)ccc3o2)n1CC", "Potency": "inconclusive [inhibitor, single point]"}, {"smiles": "O=C(CN(Cc1ccccc1)S(=O)(=O)c1cccc(C(F)(F)F)c1)NC1CCCCC1", "Potency": "inconclusive [inhibitor, single point]"}, {"smiles": "Cn1c(Cn2c(=O)sc3ccccc32)nnc1SCC(=O)N1CCCc2ccccc21", "Potency": "inconclusive [inhibitor, single point]"}, {"smiles": "CSc1ccccc1OC1CCN(Cc2ccccc2)CC1", "activity change, negative = inhibition": "inactive: -11.9%"}, {"smiles": "COc1cccc(NC(=O)CSc2nnc(-c3ccc(C)cc3)o2)c1", "activity change, negative = inhibition": "inactive: -5.27% [at 46.1 µM]"}, {"smiles": "Cc1cc([N+](=O)[O-])ccc1N=Nc1c(N)[nH]n(-c2ccccc2)c1=O", "activity change, negative = inhibition": "inactive: -21.6%"}, {"smiles": "Clc1ccc2[nH]c3c(N4CCC5(CC4)OCCO5)ncnc3c2c1", "Potency": "inconclusive [inhibitor, single point]"}, {"smiles": "Clc1ccc(-c2c[n+](Cc3ccc(Cl)cc3Cl)c3n2CCCCC3)cc1", "Potency": "inconclusive [activator, partial curve]"}, {"smiles": "COC(=O)c1ccccc1N1C(=O)C2C(C1=O)C1C=CC2C12CC2", "note": "(stereo not given)", "activity change, negative = inhibition": "inactive: 1.06% [at 46.1 µM]"}, {"smiles": "COc1ccc(Nc2c3c(nc4c(-c5ccccc5)c(C)nn24)CCC3)cc1", "activity change, negative = inhibition": "inactive: -48.3%"}, {"smiles": "COc1ccc(Cl)cc1NC(=S)NCCCN1CCCC1=O", "activity change, negative = inhibition": "inactive: 17.5%"}, {"smiles": "Cc1onc(-c2ccccc2)c1C(=O)NCc1ccco1", "activity change, negative = inhibition": "inactive: -11.3% [at 46.1 µM]"}, {"smiles": "Cc1ccc(-n2nnnc2SCn2nnc3ccccc3c2=O)c(C)c1", "Potency": "inconclusive [inhibitor, partial curve, poor fit]"}, {"smiles": "CC(=O)N1CCC2(CC1)C/C(=N\\NC(=S)Nc1ccccc1C)c1cc(O)ccc1O2", "activity change, negative = inhibition": "inactive: -35.5%"}, {"smiles": "Cc1ccc(C(=O)NC(O)C(Cl)Cl)cc1", "note": "(stereo not given)", "activity change, negative = inhibition": "inactive: 8.96%"}, {"smiles": "O=C(N/N=C/c1ccccn1)c1cc(-c2cccc3ccccc23)n[nH]1", "activity change, negative = inhibition": "inactive: 2.16%"}, {"smiles": "COc1ccc(C=C2c3ccccc3C(=O)c3ccccc32)c(OC)c1", "activity change, negative = inhibition": "inactive: -30.7%"}, {"smiles": "CCOC(=O)CSc1nc2cc3c(cc2cc1C#N)OCCO3", "Potency": "inconclusive [inhibitor, single point]"}, {"smiles": "O=C(C1=C[C@@H](c2csc3ccccc23)C[C@@H](OCc2ccc(CO)cc2)O1)N1CCN(Cc2ccc3c(c2)OCO3)CC1", "Potency": "inconclusive [activator, full curve, poor fit]"}, {"smiles": "CCCCNC(=O)Cc1c(O)c2ccccc2[nH]c1=O", "activity change, negative = inhibition": "inactive: -10.9% [at 46.1 µM]"}, {"smiles": "CCOC(=O)c1c(C)[nH]c(=S)c(C#N)c1-c1ccccc1", "Potency": "active: 7.94 µM"}, {"smiles": "COc1cccc(O[C@@H]2O[C@@H]3COC(C)(C)O[C@H]3[C@H](O)[C@H]2NC(C)=O)c1", "activity change, negative = inhibition": "inactive: 8.88% [at 46.1 µM]"}, {"smiles": "O=S(=O)(c1ccc2ccccc2c1)N1CCC(c2nc(-c3ccncc3)no2)CC1", "activity change, negative = inhibition": "inactive: -23.9% [at 46.1 µM]"}, {"smiles": "CCc1oc2ccccc2c1C(=O)c1cc(Br)c(O)c(Br)c1", "Potency": "inactive"}, {"smiles": "O=C(N/N=C/c1ccc2c(c1)OCO2)c1cc(-c2ccccc2)nc2ccccc12", "activity change, negative = inhibition": "inactive: -22.3%"}, {"smiles": "CCN1CCCC1CNC(=O)c1cn(CC)c2ccc(S(=O)(=O)N3CCCCCC3)cc2c1=O", "note": "(stereo not given)", "activity change, negative = inhibition": "inactive: 1.29% [at 46.1 µM]"}, {"smiles": "COc1ccc(N2CCN(C(c3ccccc3OC)c3nnnn3C3CCCC3)CC2)cc1", "note": "(stereo not given)", "Potency": "inconclusive [inhibitor, partial curve]"}, {"smiles": "Cc1cccc(C)c1OCc1nnc2c3cnn(C)c3ncn12", "Potency": "inconclusive [inhibitor, single point]"}, {"smiles": "Cc1cc(C)n(-c2nc(NC(C)C)nc(NC(C)C)n2)n1", "Potency": "inconclusive [inhibitor, full curve, poor fit]"}, {"smiles": "CCOc1ccc(C2c3c(oc4cc(C)c(C)cc4c3=O)C(=O)N2CCCN(C)C)cc1OC", "note": "(stereo not given)", "Potency": "inconclusive [inhibitor, single point]"}, {"smiles": "CCCn1c(C)cc(C(=O)COc2ccc(C)nc2[N+](=O)[O-])c1C", "activity change, negative = inhibition": "inactive: 2.88% [at 46.1 µM]"}, {"smiles": "CCOc1ccc(C2c3cc(OC)c(OC)cc3CC(=O)N2c2ccc(OC)cc2)cc1", "note": "(stereo not given)", "Potency": "inconclusive [inhibitor, single point]"}, {"smiles": "COc1ccc(C(C)=O)cc1CSc1nnc(Nc2ccccc2)s1", "activity change, negative = inhibition": "inactive: 4.24%"}, {"smiles": "Cc1cc(N=Nc2ccc(Cl)cc2)cc(CN2CCCC2)c1O", "Potency": "inconclusive [activator, partial curve]"}, {"smiles": "CCOC(=O)c1ccc(NC(=O)CN(C)S(=O)(=O)c2ccc(OC)cc2)cc1", "activity change, negative = inhibition": "inactive: 4.93% [at 46.1 µM]"}, {"smiles": "CCCCOc1ccc(-c2c(C#N)c(N)nc(SCC(N)=O)c2C#N)cc1", "activity change, negative = inhibition": "inactive: -13.9% [at 46.1 µM]"}, {"smiles": "COc1ccccc1NC(=O)CSc1nnc(COc2ccc(Cl)cc2)n1Cc1ccco1", "Potency": "inconclusive [inhibitor, partial curve]"}, {"smiles": "CCOc1ccccc1C(=O)NCc1ccc2c(c1)OCO2", "activity change, negative = inhibition": "inactive: -8.99% [at 46.1 µM]"}, {"smiles": "O=C(Nc1cccc(C(F)(F)F)c1)c1ccco1", "Potency": "inconclusive [activator, single point]"}, {"smiles": "CCN(CC)c1nc(Nc2ccc(Cl)cc2)nc(OCC#N)n1", "Potency": "inconclusive [inhibitor, full curve, poor fit]"}, {"smiles": "CCOc1cc(/C=N/Nc2nc(N3CCCC3)nc(N3CCCC3)n2)ccc1O", "Potency": "active: 12.6 µM"}, {"smiles": "Nc1c(C(=O)NCc2ccc(F)cc2)c2nc3ccccc3nc2n1CCCN1CCOCC1", "Potency": "inconclusive [inhibitor, single point]"}, {"smiles": "CCc1c(C(=O)O)[nH]c2ccc(Br)cc12", "Potency": "inconclusive [activator, single point]"}, {"smiles": "CC(C)OC(=O)N(C)c1ccc(C(O)(C(F)(F)F)C(F)(F)F)cc1", "Potency": "inconclusive [inhibitor, single point]"}, {"smiles": "Cc1ccc(C2c3c(oc4cc(C)c(C)cc4c3=O)C(=O)N2CCCN2CCOCC2)cc1", "note": "(stereo not given)", "activity change, negative = inhibition": "inactive: -14.3% [at 46.1 µM]"}, {"smiles": "Cc1cccc(NC(=S)Nc2ccc(Br)cc2)c1", "Potency": "inconclusive [inhibitor, single point]"}, {"smiles": "CCCCCn1c(CN2CCN(Cc3ccccc3)CC2)nc2c1c(=O)n(C)c(=O)n2C", "Potency": "inconclusive [inhibitor, single point]"}, {"smiles": "O=c1c2c3c(sc2n2cnnc2n1Cc1ccccc1)CN(Cc1ccccc1)CC3", "Potency": "inconclusive [inhibitor, partial curve]"}, {"smiles": "COC(=O)Nc1nc(-c2ccccc2)c(C(=O)c2ccc(Cl)cc2)s1", "Potency": "inconclusive [activator, partial curve]"}, {"smiles": "Fc1ccccc1C(c1nnnn1Cc1ccc2c(c1)OCO2)N1CCN(Cc2ccccc2)CC1", "note": "(stereo not given)", "Potency": "inconclusive [inhibitor, partial curve, poor fit]"}, {"smiles": "CCOC(=O)CC1=CC(C)(CC(=O)OCC)C(C#N)(C#N)C(N)=C1C#N", "note": "(stereo not given)", "activity change, negative = inhibition": "inactive: -15.7% [at 46.1 µM]"}, {"smiles": "c1ccc(CCn2nnnc2C(c2cccs2)N2CCN(Cc3ccc4c(c3)OCO4)CC2)cc1", "note": "(stereo not given)", "Potency": "inconclusive [inhibitor, partial curve]"}, {"smiles": "CCN(CC(=O)Nc1ccc2c(c1)OCCO2)Cc1cc(=O)n2ccsc2n1", "activity change, negative = inhibition": "inactive: 13.2%"}, {"smiles": "O=C(Nc1ccc2oc(-c3cccc(F)c3)nc2c1)c1ccccc1F", "Potency": "inconclusive [activator, single point]"}, {"smiles": "Cc1ccc(NC(=O)C2c3ccccc3Oc3ccccc32)nc1", "Potency": "inconclusive [activator, single point]"}, {"smiles": "O=C1CCc2ccc(OCCCCN3CCN(c4cccc(Cl)c4Cl)CC3)cc2N1", "Potency": "inconclusive [inhibitor, single point]"}, {"smiles": "O=C(CSc1ccc(-c2cccnc2)nn1)c1ccc([N+](=O)[O-])cc1", "activity change, negative = inhibition": "inactive: -15.5%"}, {"smiles": "CCc1cccc(C)c1NC(=O)CSc1nc2ccc(N3C(=O)c4ccccc4C3=O)cc2s1", "activity change, negative = inhibition": "inactive: 8.53% [at 46.1 µM]"}, {"smiles": "COc1cc(/C=C2\\COC/C(=C\\c3ccc(O)c(OC)c3)C2=O)ccc1O", "Potency": "inconclusive [activator, single point]"}, {"smiles": "COc1cc(OC)cc(C(=O)NCC(=O)OCC(=O)C(C)(C)C)c1", "activity change, negative = inhibition": "inactive: 11%"}, {"smiles": "Cc1cc2cc3c(=O)[nH]c(=O)[nH]c3nc2cc1C", "Potency": "inconclusive [activator, single point]"}, {"smiles": "COc1cc(/C=N/NC(=S)NC2CC3CC2C2C=CCC32)ccc1O", "note": "(stereo not given)", "Potency": "inconclusive [activator, single point]"}, {"smiles": "O=c1[nH]c(=O)n(Cc2ccccc2)c2nc(-c3ccc(Oc4ccc(F)cc4)c([N+](=O)[O-])c3)n(CCO)c12", "Potency": "active: 6.31 µM"}, {"smiles": "Cc1ccc(N2C(N)=C(C#N)C(c3cccnc3)C3=C2CCCC3=O)cc1", "note": "(stereo not given)", "activity change, negative = inhibition": "inactive: -11.9% [at 46.1 µM]"}, {"smiles": "O=C1NC(=S)S/C1=C/c1ccc(N2CCOCC2)o1", "Potency": "active: 12.6 µM"}, {"smiles": "c1ccc2c(c1)NC1(CCCCCC1)n1c-2nc2ccccc21", "Potency": "inconclusive [activator, partial curve]"}, {"smiles": "CC(=O)Nn1cc2c(c1-c1ccccc1)c(=O)n(C)c(=O)n2C", "activity change, negative = inhibition": "inactive: -20.5% [at 46.1 µM]"}, {"smiles": "C=CCc1c(C)nc(N)[nH]c1=O", "Potency": "inconclusive [inhibitor, single point]"}, {"smiles": "Cc1cccc(C(=O)Oc2ccc(/C=N/NC(=O)c3ccccc3O)cc2)c1", "activity change, negative = inhibition": "inactive: -49.6%"}, {"smiles": "O=C1c2ccccc2CC1(Cc1ccccc1)Cc1ccccc1", "Potency": "inconclusive [inhibitor, single point]"}, {"smiles": "COc1ccccc1-c1nc(COc2ccc(Cl)cc2Cl)no1", "Potency": "inconclusive [activator, single point]"}, {"smiles": "O=C(OCCN(C1=NS(=O)(=O)c2ccccc21)c1ccccc1Cl)c1ccc(Cl)cc1", "Potency": "inconclusive [inhibitor, partial curve]"}, {"smiles": "OCc1cn(-c2ccccc2)nc1-c1ccc(-c2nn(-c3ccccc3)cc2CO)cc1", "Potency": "inconclusive [inhibitor, single point]"}]}]}
